Results reported in paper PMC4336329 (PLoS ONE, 2015).
The campaign covered roughly 310,000 compounds. About 14,000 (4.5%) showed an effect of 50% or more. The effect is printed as a negative number. The list shows a part of the results.

Molecular target: human ether-à-go-go-related gene (hERG) potassium channel (human, UniProt Q12809)
Assay: primary screen, population patch clamp on CHO cells stably expressing hERG
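Also: peak tail current of the secondary pulse compared with the same well before compound.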

human ether-à-go-go-related gene (hERG) potassium channel, sequence (Q12809 whole entry, looked up): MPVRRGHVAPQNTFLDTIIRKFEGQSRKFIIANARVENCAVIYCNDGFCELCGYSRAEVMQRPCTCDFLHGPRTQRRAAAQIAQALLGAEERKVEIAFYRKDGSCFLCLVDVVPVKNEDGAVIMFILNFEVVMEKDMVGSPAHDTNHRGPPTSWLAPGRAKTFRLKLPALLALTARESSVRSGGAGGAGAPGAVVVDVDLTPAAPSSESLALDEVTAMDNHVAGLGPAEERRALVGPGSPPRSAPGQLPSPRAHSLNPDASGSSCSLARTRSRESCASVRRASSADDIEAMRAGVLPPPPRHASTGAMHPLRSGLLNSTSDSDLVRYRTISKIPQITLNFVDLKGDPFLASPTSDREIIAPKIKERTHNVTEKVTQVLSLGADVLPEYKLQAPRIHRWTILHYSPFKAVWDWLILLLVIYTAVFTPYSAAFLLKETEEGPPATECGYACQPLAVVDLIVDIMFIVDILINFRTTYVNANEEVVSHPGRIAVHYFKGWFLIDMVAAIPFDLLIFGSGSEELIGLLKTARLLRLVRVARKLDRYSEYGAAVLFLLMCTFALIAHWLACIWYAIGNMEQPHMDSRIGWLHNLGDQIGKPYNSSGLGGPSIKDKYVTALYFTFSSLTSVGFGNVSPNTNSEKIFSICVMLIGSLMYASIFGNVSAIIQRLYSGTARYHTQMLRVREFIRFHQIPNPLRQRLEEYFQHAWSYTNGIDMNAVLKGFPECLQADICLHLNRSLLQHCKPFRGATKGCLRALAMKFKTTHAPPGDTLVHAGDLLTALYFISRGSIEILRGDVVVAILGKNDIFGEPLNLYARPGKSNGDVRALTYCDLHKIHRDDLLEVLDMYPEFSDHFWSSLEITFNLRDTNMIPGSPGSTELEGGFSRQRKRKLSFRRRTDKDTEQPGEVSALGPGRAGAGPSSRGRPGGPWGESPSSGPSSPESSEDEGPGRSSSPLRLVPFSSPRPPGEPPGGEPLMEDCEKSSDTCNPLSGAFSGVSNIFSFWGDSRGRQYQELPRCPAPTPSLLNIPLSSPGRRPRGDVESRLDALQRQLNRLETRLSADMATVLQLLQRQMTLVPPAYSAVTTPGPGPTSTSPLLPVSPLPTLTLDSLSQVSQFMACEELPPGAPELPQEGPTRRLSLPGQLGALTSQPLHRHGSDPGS

| SMILES | hERG current change (%, negative = inhibition) at 10uM [%] |
| --- | --- |
| Cn1c(N2CCOCC2)c(C=O)c2ccccc21 | -12.9 |
| COCCNc1ncnc2c1cnn2Cc1ccccc1Cl | 11.3 |
| CCN(CC)S(=O)(=O)c1ccc(C)c(NC(=S)N2CCN(Cc3ccc4c(c3)OCO4)CC2)c1 | -13.4 |
| COC(=O)c1cccc(NC(=O)CCN2C(=O)C3CC=CCC3C2=O)c1 (stereo not shown) | -0.0493 |
| O=C(Nc1ccc(N2CCOCC2)cc1N1CCOCC1)c1ncoc1-c1cccc(F)c1 | -9.18 |
| COCCNC(=O)c1ccc2c(=O)n(CCOC)c(=O)[nH]c2c1 | 13.6 |
| COC(=O)Cc1ccc(NC(=S)Nc2ccc(N3CCOCC3)cc2)cc1 | -7.44 |
| COc1cc2nc(C3CCC3)n(NC(=O)C3CCCC(OC)C3)c(=O)c2cc1OC (stereo not shown) | -4.82 |
| CSc1nc(C)c(C(=O)Nc2ccccc2)c(C)c1C#N | 3.21 |
| COC(=O)c1ccc(CNC(=O)COC(=O)c2ccc(N(C)C)cc2)cc1 | 30.3 |
| CC(C)n1c(=O)c(C=Nc2ccc(Cl)cc2)c(O)n(Cc2ccco2)c1=O | -5.75 |
| O=C(COC(=O)/C=C/c1cccs1)NC1CCCCC1 | -6.27 |
| CCCn1c(-c2cc(OC)c(OC)c(OC)c2)nc2nc3ccccc3nc21 | -37.5 |
| CCOC(=O)c1c(C)oc2c(CN3CCN(C)CC3)c(Br)c(OC)c(O)c12.Cl | -26.2 |
| Cc1cc(C(=O)CSc2n[nH]c(-c3ccccc3F)n2)c(C)n1Cc1cccs1 | 4.84 |
| CC(=O)OC1(c2ccccc2)CCN(C)C(C)C1C.Cl (stereo not shown) | 11.8 |
| Cc1cc(C(=O)Nc2ccccn2)cs1 | 3.35 |
| COc1ccc(C2N=C(N)N=C(N)N2c2ccc(C)cc2)cc1.Cl (stereo not shown) | -1.45 |
| CCOC(=O)CNC(=O)N1CCCC(CNS(=O)(=O)c2cccs2)C1 (stereo not shown) | 45.9 |
| CCN(CC)CC.CN1C=CC=C/C1=C1\SC(=S)N(CC(=O)O)C1=O | 11.6 |
| O=C(Nc1cccc2ccccc12)NC1CCCc2ccccc21 (stereo not shown) | 12.1 |
| O=C(Nc1cccc([N+](=O)[O-])c1)c1ccc2nsnc2c1 | -8.11 |
| Cc1ccc(C(=O)CSc2cc(C)[nH]c(=O)n2)cc1 | 6.76 |

| SMILES | hERG current change (%, negative = inhibition) at 10uM [%] |
| --- | --- |
| COc1cc(O)c(C(CC(=O)N2CCOCC2)c2ccc(N(C)C)cc2)c(OC)c1 (stereo not shown) | 19.2 |
| O=C(c1ccc(O)cc1)c1ccc(Cl)cc1 | -19 |
| COc1ccccc1/C=C1\Oc2cc(OC(=O)N3CCOCC3)ccc2C1=O | 20.4 |
| Cn1cccc1Cc1nnc(SCC(=O)N2CCCCCC2)n1-c1ccc(F)cc1 | -7.3 |
| COCCCNC(=O)C1CCN(c2nc(C)cc(C)n2)CC1 | 5.94 |
| O=C(c1ccc(S(=O)(=O)N2CCc3ccccc3C2)cc1)N1CCCCC1 | -22.2 |
| COc1cc(/C=C\C(=O)OCn2nnc3ccccc3c2=O)cc(OC)c1OC | -6.44 |
| COc1cc(OC)cc(C(=O)NCCCCNC(=O)c2cc(OC)cc(OC)c2)c1 | 4.94 |
| COc1cc(/C=C/c2nc3ccccc3s2)cc(OC)c1O | -36.7 |
| Cc1ccc(C(=O)N/C(=C/c2ccccc2)C(=O)NCC2CCCO2)cc1 (stereo not shown) | -21.7 |
| NC(=O)C(Cc1ccccc1)NC(=O)C12CC3CC(CC(C3)C1)C2 (stereo not shown) | 11.6 |
| Cl.O=C(CN1C2=NCCCN2c2ccccc21)c1ccc(Cl)cc1Cl | -79.6 |
| Cc1cccc(N2CCN(C(=O)c3cccc(N4CCCC4=O)c3)CC2)c1C | -17.7 |
| C/C(=N\OCC(=O)Nc1ccc2c(c1)OCCO2)c1ccc2c(c1)OCCO2 | -4.5 |
| CC1=CC(=C(C#N)C#N)C=C(C)N1CCC(C)C | 14.7 |
| CC(=O)CCc1c[nH]c2c(C(=O)O)cccc12 | 5.11 |
| COc1ccc(NC(=O)/C(=C\c2cccs2)NC(=O)c2ccco2)cc1 | -5.67 |
| Cc1nc(NCCc2ccccc2F)c(C#N)c(C)c1[N+](=O)[O-] | 14.3 |
| COc1ccc(NC(=O)c2oc3ccc(S(=O)(=O)N4CCOCC4)cc3c2C)cc1 | 3.58 |
| CN(C)S(=O)(=O)N1CCN(c2ccccc2)CC1 | -1.78 |
| CN(C)C(=O)C1CC(=O)OC12CCCCC2 (stereo not shown) | 4.57 |
| CC(C)=CCC/C(C)=C/COc1ccc2ccc(=O)oc2c1 | -2.41 |
| Cc1[nH]c2ccc(F)cc2c1CCN(Cc1cccnc1)C(=S)Nc1ccc(F)cc1 | -34.4 |
